83 compounds from PubChem BioAssay AID1645887 (National Center for Advancing Translational Sciences (NCATS), 2021) can be followed below.

Where “and” joins values, the source holds several entries; their conditions need not be identical. Equal entries are not always repeated. Screen size: about 16,000 compounds; about 40 (0.2%) were called active. Another 1% or so got no clear call; they are omitted. Calls come from the whole dose curve; as a rule, active = well fitted activation curve with a large enough effect; inconclusive = small, poorly fitted or top-dose-only effect, or another doubt; inactive = no such curve, though single readings can be large or run the other way. The list shows a part of the results. Non-standard residues stand in square brackets, D forms with d. Residues, ends and D or L forms follow the SMILES beside them. Sar = CNCC(=O)O
% is set by controls: 0 for no effect and ±100 for the full control effect.

UniProt Q8WZA2, sequence (Q8WZA2 whole entry, looked up): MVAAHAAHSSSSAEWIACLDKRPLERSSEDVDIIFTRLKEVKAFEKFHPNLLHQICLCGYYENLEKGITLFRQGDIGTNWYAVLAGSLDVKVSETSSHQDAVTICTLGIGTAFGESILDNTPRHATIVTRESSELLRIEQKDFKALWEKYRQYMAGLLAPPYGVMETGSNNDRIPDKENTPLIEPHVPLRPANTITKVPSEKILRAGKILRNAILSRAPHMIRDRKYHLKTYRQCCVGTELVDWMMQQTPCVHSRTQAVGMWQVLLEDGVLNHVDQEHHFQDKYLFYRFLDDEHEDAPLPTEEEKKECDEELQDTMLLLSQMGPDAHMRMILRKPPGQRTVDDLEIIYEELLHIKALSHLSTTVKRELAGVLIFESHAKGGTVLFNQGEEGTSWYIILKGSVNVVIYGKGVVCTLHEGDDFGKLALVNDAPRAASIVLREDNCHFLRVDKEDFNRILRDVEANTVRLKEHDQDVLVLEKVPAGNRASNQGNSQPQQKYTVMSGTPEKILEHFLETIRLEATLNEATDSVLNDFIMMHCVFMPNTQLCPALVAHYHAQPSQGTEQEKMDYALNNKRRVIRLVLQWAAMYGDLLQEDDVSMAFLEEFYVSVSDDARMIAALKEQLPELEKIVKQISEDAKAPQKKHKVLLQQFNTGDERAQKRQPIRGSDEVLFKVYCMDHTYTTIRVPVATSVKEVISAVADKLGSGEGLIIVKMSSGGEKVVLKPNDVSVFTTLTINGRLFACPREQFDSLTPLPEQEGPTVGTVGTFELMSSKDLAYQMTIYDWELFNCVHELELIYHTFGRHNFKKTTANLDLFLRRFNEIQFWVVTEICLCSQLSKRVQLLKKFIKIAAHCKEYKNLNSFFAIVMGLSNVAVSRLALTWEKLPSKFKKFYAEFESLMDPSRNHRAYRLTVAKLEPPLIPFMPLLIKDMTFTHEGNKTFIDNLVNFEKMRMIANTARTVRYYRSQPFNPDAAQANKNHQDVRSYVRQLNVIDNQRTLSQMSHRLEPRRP

The assay deals with Rap guanine nucleotide exchange factor 4 (Homo sapiens) (UniProt Q8WZA2). Nature of the assay: Validation qHTS for agonist of cAMP-regulated guanine nucleotide exchange factor 4 (EPAC2).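 Note: exchange makes BODIPY-GDP fluorescence drop when released from Rap1B; series mostly up to about 150 µM.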 Conditions: EPAC2 Rap1B BODIPY-GDP exchange, fluorescence; activation: hits give high values. Put shortly:
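Signal normalized against 6.5 mM cAMP as agonist control. Mix of EPAC2 (100 nM), RAP1B-BODIPY-GDP (250 nM) and GDP (50 uM) was read kinetically at 480/540 nm, every 5 min over 30 min, after 5 min room-temperature incubation with compound.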
(In general: qHTS replaces the single test concentration by a dilution series.)
With `O=C1CCC[C@@H]2Cc3nc4ccc(Cl)cc4cc3[C@@H]3CCN1[C@H]23`, the activation was inactive: -18.8%.
As to `O=c1cc(-c2cccc(O)c2)oc2cccc(O)c12`, the activation was inactive: -1.55%.
With `COc1cccc(CN2CCC3(CC2)c2ccccc2[C@@H](NC(=O)c2ccccc2)[C@@H]3O)c1O` the figure was inactive: -21.7%; with `O=C(O)c1ccccc1Nc1ccccc1`, inactive: 2.72% [middle of 4 runs]; with `Cc1cc(C(=O)Nc2ccccc2-c2nc(CNC(=O)c3ccc(F)cc3F)c(C)o2)c(C)o1`, inactive: -16.5%.
With `CN(C)C(=O)c1ccc(-c2ccc3ncnc(Nc4ccccc4)c3c2)cc1` the figure was inactive: -11.1%; with `CCn1c(-c2ccccc2F)nc2cc(NC(C)=O)cc(C(=O)N(C)Cc3cn(C)nc3C)c21`, inactive: 3.4%.
As for `O=C1CC(c2ccc(O[C@@H]3OC(CO)[C@@H](O)C(O)C3O)cc2)Oc2cc(O)ccc21` (stereo partly drawn), the activation is inactive: -18.4%.
Under `CC(C)C(NS(C)(=O)=O)c1nnc2n1CCN(Cc1ccnc3ccccc13)CC2` (stereo not drawn) stands inactive: -16.4%; under `CCCCCCCCCCCCCCCC(=O)OC(CC(=O)O)C[N+](C)(C)C` (stereo not drawn), inactive: -22.5% and inactive: -85%.
For `COc1cc([C@@H]2c3cc4c(cc3C(O[C@@H]3O[C@@H]5COC(c6cccs6)O[C@H]5[C@H](O)[C@H]3O)C3COC(=O)[C@@H]32)OCO4)cc(OC)c1O` (stereo partly drawn), the activation is inactive: -28.2%.
Under `O=C(/C=C/c1ccc(OCc2ccccc2)cc1)c1cccs1` stands inactive: -17.1%; under `COc1ccc(C(=O)NCCN2Cc3cc(C)ccc3OC(C)C2)c(OC)n1` (stereo not drawn), inactive: -1.16%.
For `CC1NC(C(=O)O)Cc2c1[nH]c1ccccc21` (stereo not drawn), the activation is inactive: 1.79%.
With `CC(C)CC(NP(=O)(O)O[C@@H]1O[C@@H](C)[C@H](O)[C@@H](O)[C@H]1O)C(=O)NC(Cc1c[nH]c2ccccc12)C(=O)O` (stereo partly drawn) the figure was inactive: -15.6%.
With `Cc1cccc(CNc2ncncc2-c2ccccc2C)c1` the figure was inactive: -7.7%; with `O=S(=O)(c1ccccc1)N1CCC2(CCN(Cc3ccccc3)CC2)CC1`, inactive: 2.74%.
Under `Cc1ccc(S[C@@H](CCN2CC[C@H](C)CCC2=O)c2ccccc2)cc1` stands inactive: -2.26%; under `COc1ccc(NC(=O)N2CC[C@@]3(CCCNC3)C2)cc1`, inactive: -13.6%; under `Cc1nc2cc(NC(=O)[C@@H]3C[C@@H](Sc4ccccn4)CN3C3CCCCCC3)ccc2s1`, inactive: -9.56%.
For `CCCN(CCc1cccs1)[C@H]1CCc2c(O)cccc2C1`, the activation was inactive: 4.65%.
With `COC(=O)[C@H]1[C@@H]2C[C@H]3c4[nH]c5ccccc5c4CCN3C[C@@H]2CC[C@@H]1O` the figure was inactive: -2.47%; with `CCOC(=O)N1CCN(Cc2ccc3c(c2)CN(C(=O)c2cc(-c4ccccc4)no2)CCO3)CC1`, inactive: -9.88%.
Under `CC(=O)N1CCC2(CC1)CN(c1ccccn1)C2` stands inactive: -1.03%; under `CC(=O)N1CCC2(CCCN(Cc3cc(C(F)(F)F)cc(C(F)(F)F)c3)C2)CC1`, inactive: -37.3%; under `Cc1cc(=O)n(-c2ccccc2)n1C`, inactive: 4.36% and inactive: 10.5%.
As to `O=C1CCN(Cc2ccc(Br)cc2)CCN1[C@H](CO)Cc1ccccc1`, the activation was inactive: -0.692%.
Under `Cc1csc[n+]1CC(=O)c1ccccc1` stands inactive: -4.38%; under `CN(C)c1cccc(C(=O)NCC2Cc3cccc(-c4cncnc4)c3O2)c1` (stereo not drawn), inactive: -0.0867%; under `COc1cc(NS(=O)(=O)c2ccc(N)cc2)nc(C)n1`, inactive: -6.43%.
Under `CCCCCC(CC(=O)O)C(=O)O` (stereo not drawn) stands inactive: -4.17%.
Take `CO[C@H]1[C@H](NC(=O)c2ccsc2)c2ccccc2C12CCN(Cc1c(O)ccc3ccccc13)CC2`: the activation was inactive: -7.57%.
With `CO[C@H]1O[C@@H]2O[C@@]3(C)CC[C@H]4[C@H](C)CC[C@@H]([C@H]1C)[C@@]24OO3` the figure was inactive: 1.36%.
With `Cc1ccc(C(=O)Nc2cccc(-c3nc(CNC(=O)c4cccc(C)c4C)c(C)o3)c2)s1` the figure was inactive: -13.5%; with `CN(C)c1ncc2nc(-c3ccc(Cl)cc3)c(=O)n(-c3ccccc3)c2n1`, inactive: -6.01%.
Under `O=c1c2ccccc2oc2ccccc12` stands inactive: -4.37%; under `COc1ccc(-c2nc3cnc(OCc4ccccc4)nc3n(CCC#N)c2=O)cc1`, inactive: -4.89%.
Consider `COC(=O)[C@@H]1CCCN1C(=O)c1c(OC)cc(=O)n2c1CCN(Cc1ccc3nsnc3c1)CC2`, for which the activation is inactive: -3.69%.
Under `NC12CC3CC(CC(C3)C1)C2` stands inactive: 4.48% [middle of 4 runs]; under `Cc1noc(C)c1C(=O)N1CCC2(CC1)CCN(c1ccncc1)CC2`, inactive: -10.4%; under `CCCN1CCC(=O)N([C@H](COc2ccccc2)CC(C)C)CC1`, inactive: -15.9%.
With `CC(C)(C)C(=O)NCCCC(=O)O` the figure was inactive: -13.6%; with `O=c1c(-c2cccs2)nc2cnc(Oc3cccc(Cl)c3)nc2n1C[C@H]1CCCO1`, inactive: 1.05%; with `FC(F)(F)c1ccccc1-c1ccc2ncnc(NC3CCNCC3)c2c1`, inactive: -6.51%.
With `N#C/C(=C\c1ccc(O)c(O)c1)C(=O)c1ccc(O)c(O)c1` the figure was inactive: -34.3%; with `CC1CCC(C(C)[C@H]2CCC3C4CC(=O)C5C[C@@H](O)CC[C@]5(C)C4CC[C@@]32C)=NC1` (stereo partly drawn), inactive: 7.9%.
Consider `NCC(=O)O`, for which the activation was inactive: -10.7%.
Under `Cc1c(CN2CCOc3c(cc(-c4ncc(C(F)(F)F)cc4Cl)cc3OCC3CCCO3)C2)cnn1C` (stereo not drawn) stands inactive: -8.06%; under `COCC(=O)N1CCC[C@@]2(CCN(Cc3ccccc3)C2)C1`, inactive: 0.21%.
Under `CC1(C)CCC[C@@]2(C)C1CC[C@@](C)(O)[C@@H]2CC[C@@](C)(O)C1CO1` (stereo partly drawn) stands inactive: -55.1%.
Take `Cc1ccc(-c2ncc(Cl)cc2-c2ccc(S(C)(=O)=O)cc2)cn1`: the activation is inactive: -14.9%.
For `O=c1c(O)c(-c2ccc(O)cc2)oc2ccc(O)cc12`, the activation is inactive: -3.15%.
With `CNCC(=O)NCC(=O)N[C@@H](Cc1ccccc1)C(=O)N[C@@H](CC(C)C)C(=O)O` (H-[Sar]GFL-OH) the figure was inactive: 8.14%; with `Cc1cc(C(=O)NCc2nnc3n2CCN(Cc2ccc4c(c2)Cc2ccccc2-4)CC3)c(C)o1`, inactive: -35.7%; with `CC(C)[C@@H]1CC[C@@H](C)C[C@@H]1P(=O)(c1ccccc1)c1ccccc1`, inactive: -31.3%.
For `CC(C)C(N)C(=O)NC(Cc1c[nH]c2ccccc12)C(=O)O` (stereo not drawn), the activation was inactive: -10.2%.
With `COc1ccc2[nH]cc(CCNc3nc(-c4cccc(C#N)c4)nc4ccccc34)c2c1` the figure was inactive: 14.5%.
Under `COc1ccc(SC[C@H](C)CN2CC[C@H](O)CCC2=O)cc1` stands inactive: -18.8%; under `Cn1cccc1C(=O)N1CCC2(CC1)CCN(c1ccccn1)CC2`, inactive: -20.6%; under `CC1CCc2c(N3CCC(O)CC3)c(F)cc3c(=O)c(C(=O)O)cn1c23` (stereo not drawn), inactive: 3.8%.
Under `CC(=O)c1ccc(F)c(-c2cc(C)cc3c2OC(CNC(=O)c2cnc4ccccn4c2=O)C3)c1` (stereo not drawn) stands inactive: -25.5%.
Regarding `CC1(C2CCN(Cc3c[nH]c4ccccc34)CC2)NC(=O)N(CCN2CCOCC2)C1=O` (stereo not drawn), the activation was inactive: -3.11%.
`COC(=O)C[C@H]1c2ccccc2S(=O)(=O)N1c1cccc(OC)c1`: the activation was inactive: -0.673%.
With `NC(Cc1cccc(-c2ccccc2CP(=O)(O)O)c1)C(=O)O` (stereo not drawn) the figure was inactive: -26.7%; with `O=S(=O)(c1cccc2cnccc12)N1CCNCC1`, inactive: 1.51%.
Take `COc1ccccc1C1CN(Cc2cccc3c2OCO3)Cc2ccccc2O1` (stereo not drawn): the activation was inactive: -15.7%.
With `COc1ccc(CN2CC[C@H]3C=CC[C@@H](C(=O)Nc4nccs4)[C@H]3C2=O)cc1OC` the figure was inactive: -3.26%; with `O=C(O)Cc1cccc(-c2cc(CCCCCCc3ccc(O[C@H]4O[C@H](CO)[C@@H](O)[C@H](O)[C@@H]4O)c(-c4cccc(CC(=O)O)c4)c3)ccc2O[C@H]2O[C@H](CO)[C@@H](O)[C@H](O)[C@@H]2O)c1`, inactive: -8.94%.
Under `CC(=O)N(O)CCCCCNC(=O)CCC(=O)N(O)CCCCCNC(=O)CCC(=O)N(O)CCCCCN` stands inactive: 7.45% and inactive: 0.364%; under `Cc1ccc(C)c(S(=O)(=O)NCc2nc(N3CCCC3)c3cc(Cl)ccc3n2)c1`, inactive: -2.61%.
With `O=c1c(-c2ccc(Cl)cc2)nc2cnc(Nc3ccccc3)nc2n1C[C@H]1CCCO1` the figure was inactive: -9.29%.
Consider `CC(C)[C@H]1COCCS(=O)(=O)N1Cc1cccc([N+](=O)[O-])c1`, for which the activation was inactive: -19.5%.
Under `N[C@H](CO)C(=O)O` stands inactive: 1.58% and inactive: 5.58% and inactive: -30.3%; under `COc1ccc(-n2c(CNC(=O)c3cccc(OC)c3OC)nnc2SC)cc1`, inactive: -10.5%; under `CC(C)NC(=O)N1CC2(CCN(C(=O)c3cccn3C)CC2)C1`, inactive: -24%.
With `CC(=O)SC[C@@H](Cc1ccccc1)C(=O)NCC(=O)OCc1ccccc1` the figure was inactive: 6.3%; with `COc1ncc2nc(-c3ccc(F)cc3)c(=O)n(C)c2n1`, inactive: 9.23%; with `Cc1noc(C)c1-c1nccc(N2CCNCC2)n1`, inactive: -15.1%.
As to `C[N+](C)(C)CCCCCNCC12CC3CC(CC(C3)C1)C2`, the activation was inactive: -14.4%.
Under `Cc1ncc2c(c1CNS(=O)(=O)N(C)C)CCN(C(=O)/C=C/c1ccccc1Cl)C2` stands inactive: -2.62%.
Take `CCCC(=O)N1CCCN(c2nc(N)c3cc(OC)c(OC)cc3n2)CC1`: the activation is inactive: -7.03%.
With `CCN[C@H]1C[C@H](C)S(=O)(=O)c2sc(S(N)(=O)=O)cc21` the figure was inactive: 8.53%; with `Cc1cc(CNC(=O)c2cnn(-c3ncc4c(n3)-c3ccccc3CCC4)c2C2CC2)on1`, inactive: -16.4%.
